Experimental data: PubChem BioAssay AID485281 (National Center for Advancing Translational Sciences (NCATS), 2010)
Among all 350,000 compounds or so, about 260 (0.074%) were called active. Inconclusive means that the source gave no clear call. Such entries were picked first, then a sample of the others. Calls follow the shape of the dose curve; as a rule, active = well fitted inhibition curve with a large enough effect; inconclusive = small, poorly fitted or top-dose-only effect; inactive = no such curve, though single readings can be large or run the other way. Where the call is inconclusive, the potency comes from a doubtful curve fit.

Target: Ferritin light chain (Equus caballus) (UniProt P02791)
Sequence of UniProt P02791 (P02791 whole entry, looked up): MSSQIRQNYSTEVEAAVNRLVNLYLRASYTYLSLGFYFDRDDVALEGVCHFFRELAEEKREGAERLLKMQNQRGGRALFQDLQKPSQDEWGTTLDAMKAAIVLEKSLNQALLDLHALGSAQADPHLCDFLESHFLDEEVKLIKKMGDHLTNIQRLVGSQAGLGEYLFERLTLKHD
Assay: qHTS Assay for Identification of Novel General Anesthetics; also: nearly all actives have a fitted effect of over 20% in size
Conditions: apoferritin/1-aminoanthracene competitive binding, fluorescence; series mostly up to 77.5 µM
Outline: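 Horse-spleen apoferritin (10 uM) was mixed with 50% saturated 1-aminoanthracene in PBS, exposed to compounds for 10 min at room temperature, and read for fluorescence (ex 380 nm, em 535 nm). Competitive displacement was fitted with a four-parameter Hill equation.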
Potency is read from the fitted curve at half-maximal effect; tags tell the direction and shape of the fitted curve.

Potency, inactive:
COc1cc(C(=O)NCc2nc3cccnc3n2Cc2ccc(C)cc2)cc(OC)c1OC
Oc1ccc(-c2nc3ccc4ccccc4c3c3c2CCC3)cc1O
O=C1C=CC(=O)N1c1ccc(Sc2ccc([N+](=O)[O-])cc2)cc1
CC(C)(C)N1CSC(=S)N(Cc2ccccc2)C1
COc1cccc2cc(CC(=O)c3ccccc3)c(=O)oc12
Cc1ccc(-c2cc(C(=O)Nc3ccccc3C)c3ccccc3n2)o1
COc1cc(/C=C(\C#N)C(=O)N2CCOCC2)ccc1OCc1ccccc1

Potency, inconclusive:
Cc1cccc(N2CCN(C(=O)c3noc4c3CCCCC4)CC2)c1C 7.08 µM [inhibitor, single point]
Cc1cc(C(=O)C(=O)Nc2nncs2)c(C)n1-c1ccc(Cl)cc1 31.6 µM [inhibitor, partial curve]
Cc1ccc(NC(=S)Nc2ccc(OC(F)F)c(Cl)c2)cc1Cl 28.2 µM [inhibitor, partial curve]
COc1ccc(C(=O)CSc2nnc(-c3cc4ccccc4cc3O)n2Cc2ccco2)cc1 2.51 µM [inhibitor, full curve, poor fit]
CN(C)/C=C1\SC(=S)N(N2C(=O)C3C4C=CC(C4)C3C2=O)C1=O (stereo not given) 39.8 µM [inhibitor, single point]
O=C1Nc2ccc(Br)cc2C12NNc1ccccc1O2 (stereo not given) 35.5 µM [inhibitor, partial curve]
CCOC(=O)C(=O)NC12CC3CC(CC(C3)C1)C2 22.4 µM [inhibitor, partial curve]
Cc1ccc(S(=O)(=O)N2CCOC2CNC(=O)C(=O)NCc2ccccc2)cc1 (stereo not given) 22.4 µM [inhibitor, partial curve]
COc1ccc(C2CC(=O)c3c(O)cc(O)cc3O2)cc1O (stereo not given) 28.2 µM [inhibitor, partial curve]
CC(C(=O)NC1CCCc2ccccc21)N1CCN(Cc2ccc3c(c2)OCO3)CC1 (stereo not given) 44.7 µM [inhibitor, partial curve]
O=c1/c(=C\c2ccc(O)cc2)sc2n1C(c1ccccc1)C(c1ccccc1)=NN=2 (stereo not given) 3.55 µM [inhibitor, partial curve]
COc1cc(OC)cc(C(=O)OCC(=O)Nc2ccc(N3CCCCC3)cc2)c1 17.8 µM [inhibitor, partial curve, poor fit]
O=C(CNC(=O)c1ccc(F)cc1)OCc1cc(=O)n2nc(C3CCCCC3)sc2n1 17.8 µM [inhibitor, partial curve]
